From PubChem BioAssay AID1347165 (National Center for Advancing Translational Sciences (NCATS), 2019)
“And” between values parts separate entries of the source, which are not always exact repeats. Equal entries are not always repeated. About 5,700 (2.6%) of roughly 220,000 compounds were called active. This list was built around the results that the source calls inconclusive (neither active nor inactive); the mix of calls is not that of the screen. Calls come from the whole dose curve; as a rule, active = well fitted inhibition curve with a large enough effect; inconclusive = small, poorly fitted or top-dose-only effect; inactive = no such curve, though single readings can be large or run the other way. Potencies of inconclusive entries are doubtful fits and often do not repeat.

biological target: Lysine-specific demethylase 5B (Homo sapiens) (UniProt Q9UGL1); assay: Primary screen for KDM5B Histone Demethylases FDH-coupled qHTS; conditions: FDH-coupled NADH fluorescence (FDH is formaldehyde dehydrogenase); series mostly up to 57.7 µM; note: nearly all actives have a fitted effect of over 70% in size
Method in brief: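 Inhibition is measured as reduced NADH fluorescence generation from FDH coupling to formaldehyde release. Truncated KDM5BΔAP at 200 nM final acts on H3K4me3 peptide (12.5 µM in substrate mix) in pH 7.5 HEPES buffer with Tween-20, 30 min, room temperature.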
Potency is the fitted concentration of half-maximal effect; tags give direction and shape of the fitted curve.

Chain of UniProt Q9UGL1 (Q9UGL1 whole entry, looked up, the tested form may be a part): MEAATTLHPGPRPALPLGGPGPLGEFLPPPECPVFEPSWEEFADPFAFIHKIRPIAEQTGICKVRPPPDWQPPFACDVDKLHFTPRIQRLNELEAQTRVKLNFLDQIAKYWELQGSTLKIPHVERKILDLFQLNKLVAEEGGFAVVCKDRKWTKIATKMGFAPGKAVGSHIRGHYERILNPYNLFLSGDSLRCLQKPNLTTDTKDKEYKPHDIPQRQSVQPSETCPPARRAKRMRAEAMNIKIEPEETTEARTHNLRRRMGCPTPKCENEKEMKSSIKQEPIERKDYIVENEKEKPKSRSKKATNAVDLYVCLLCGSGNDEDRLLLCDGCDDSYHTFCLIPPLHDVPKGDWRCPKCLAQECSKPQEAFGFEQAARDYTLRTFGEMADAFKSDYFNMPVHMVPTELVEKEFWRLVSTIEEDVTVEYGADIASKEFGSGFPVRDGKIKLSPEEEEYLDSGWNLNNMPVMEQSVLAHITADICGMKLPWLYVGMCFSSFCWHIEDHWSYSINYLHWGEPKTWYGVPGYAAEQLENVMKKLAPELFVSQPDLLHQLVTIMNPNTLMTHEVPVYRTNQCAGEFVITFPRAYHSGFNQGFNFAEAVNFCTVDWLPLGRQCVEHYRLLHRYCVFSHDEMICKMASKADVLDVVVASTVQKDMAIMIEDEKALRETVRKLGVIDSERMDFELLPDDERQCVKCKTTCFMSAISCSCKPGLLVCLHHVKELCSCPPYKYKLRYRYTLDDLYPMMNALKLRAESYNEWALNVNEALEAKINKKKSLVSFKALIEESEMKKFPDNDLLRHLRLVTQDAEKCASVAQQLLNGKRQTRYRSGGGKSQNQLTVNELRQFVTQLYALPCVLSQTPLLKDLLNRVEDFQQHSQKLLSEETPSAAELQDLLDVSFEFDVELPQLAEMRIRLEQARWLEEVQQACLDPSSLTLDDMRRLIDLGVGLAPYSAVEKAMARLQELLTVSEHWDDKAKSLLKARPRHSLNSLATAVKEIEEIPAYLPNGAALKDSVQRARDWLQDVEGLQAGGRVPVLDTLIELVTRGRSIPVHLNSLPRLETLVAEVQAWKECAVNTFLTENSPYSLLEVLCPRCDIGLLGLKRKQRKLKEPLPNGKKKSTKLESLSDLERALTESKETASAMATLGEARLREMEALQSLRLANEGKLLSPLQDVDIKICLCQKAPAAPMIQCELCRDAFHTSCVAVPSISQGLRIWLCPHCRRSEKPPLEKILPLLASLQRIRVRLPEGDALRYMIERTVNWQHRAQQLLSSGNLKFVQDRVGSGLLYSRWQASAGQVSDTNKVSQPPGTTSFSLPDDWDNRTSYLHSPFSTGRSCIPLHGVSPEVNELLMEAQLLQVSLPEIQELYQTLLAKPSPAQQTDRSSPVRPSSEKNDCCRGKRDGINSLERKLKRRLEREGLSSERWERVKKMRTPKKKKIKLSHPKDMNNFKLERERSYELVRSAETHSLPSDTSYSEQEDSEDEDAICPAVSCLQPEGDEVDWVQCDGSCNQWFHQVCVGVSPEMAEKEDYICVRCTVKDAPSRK

Structure (SMILES)	Potency
CCCCCNc1nc2sc3c(c2c(=O)n1-c1cccc(Cl)c1)CCN(C)C3	inconclusive: 12.6 µM [inhibitor, partial curve, poor fit]
Clc1ccc(-c2csc(=Nc3ccccc3)n2Cc2ccc3c(c2)OCO3)cc1	inconclusive: 28.2 µM [inhibitor, partial curve, poor fit]
Cc1ccc(Nc2nc(NCCc3ccccc3)nc3c2cnn3C)cc1C	inconclusive: 20 µM [inhibitor, partial curve, poor fit]
O=Cc1ccc(OCc2cccc(Cl)c2)cc1	inconclusive: 31.6 µM [inhibitor, partial curve, poor fit]
Cc1cccc(OCc2nc(C#N)c(NCc3ccccc3Cl)o2)c1	inconclusive: 28.2 µM [inhibitor, partial curve, poor fit]
C=CCn1cc2c3c(cccc31)[C@H](CC(C)C)N[C@H](C(=O)NCc1ccccc1OC)C2	inconclusive: 35.5 µM [inhibitor, single point]
Clc1ccc(CSc2nccn2C2CC2)c2ncccc12	inactive
CCNC(=O)N[C@H]1[C@H](O)[C@@H](N(CC)CC)[C@@H]2OC[C@H]1O2	inconclusive: 35.5 µM [inhibitor, single point]
Fc1ccc(CCC2CCCN(C3CCN(Cc4cccnc4)CC3)C2)cc1 (configuration not stated)	inconclusive: 7.08 µM [inhibitor, partial curve, poor fit]
Cc1ccc(-c2ccc3nnc(CNC(=O)c4cccc(C(F)(F)F)c4)n3n2)cc1	active: 31.6 µM
CCCc1nn2c(=O)cc(COC(=O)c3cccc(NC(=O)CCc4ccccc4)c3)nc2s1	inconclusive: 31.6 µM [inhibitor, partial curve, poor fit]
CCC(C)[C@H](NC(=O)NCc1ccccc1F)C(=O)O (some centres not stated)	inactive
Cc1ccc(OCc2nc3c4c(ncn3n2)Oc2cc(O)ccc2C4c2ccccc2)cc1 (configuration not stated)	inactive
O=C(Nc1cc(C(F)(F)F)ccc1Cl)c1nn(-c2cccc(Cl)c2)ccc1=O	inactive
CN1CCC(N(C)C(=O)CCC[C@@H]2[C@H]3CCCN4CCC[C@@H](CN2Cc2ccccc2)[C@@H]34)CC1	inconclusive: 25.1 µM [inhibitor, partial curve]
Oc1ccc(-c2nc3ccccn3c2Nc2ccc3c(c2)OCCO3)cc1	inconclusive: 31.6 µM [inhibitor, partial curve, poor fit]
CC(Cc1c[nH]c2ccccc12)NC(=O)CCNc1nc(Cl)nc2nc[nH]c12 (configuration not stated)	inactive
Cc1nn2c(c1-c1ccccc1Oc1ccccc1)N(Cc1cccc(C(=O)O)c1)CCC2	inconclusive: 31.6 µM [inhibitor, single point]
Nc1cccc(C(=O)c2ccncc2)c1	inconclusive: 20 µM [inhibitor, single point]
COCCNC(=O)c1cc(-c2cccc3[nH]ccc23)cc2ncn(C)c12	inconclusive: 50.1 µM [inhibitor, partial curve, poor fit]
Cc1cccc2cc(/C=N/NC(=O)c3ccncc3)c(Cl)nc12	inconclusive: 28.2 µM [inhibitor, partial curve, poor fit]
Cc1ccc(CN(Cc2ccco2)C(=O)COc2c(C)cc(C)cc2C)cc1	inconclusive: 1.41 µM [inhibitor, partial curve, poor fit]
Cc1ccccc1-n1nc(C)c(CCC(=O)NCC2CC2)c1Oc1cccc(F)c1	inactive

Structure (SMILES)	Potency
CN(C)CCC#CC(O)(c1ccccc1)C1CCCCC1 (configuration not stated)	inactive
O=C(c1cccs1)N(Cc1cccnc1)c1nc2ccc(F)cc2s1	inconclusive: 56.2 µM [inhibitor, single point]
Cn1cc(C(=O)NCC2CN([S+](=O)([O-])c3ccccc3Cl)CC23CN(c2ccccc2)C3)cn1 (configuration not stated)	inactive
COc1ccc2nc(C)c(C(=O)NC3CCS(=O)(=O)C3)cc2c1 (configuration not stated)	inconclusive: 22.4 µM [inhibitor, partial curve, poor fit]
CC1CCN(C(=O)c2c(NC(=O)c3ccccc3F)sc3c2CCC(C(C)(C)C)C3)CC1 (configuration not stated)	inconclusive: 28.2 µM [inhibitor, single point]
O=C(NCc1ccncc1)c1nc2c(o1)CCN(Cc1ccccc1)CC2	inconclusive: 20 µM [inhibitor, partial curve, poor fit]
COc1cccc(CCC(=O)NCc2nnc3c(-c4nc(C5CC5)no4)cccn23)c1	inconclusive: 25.1 µM [inhibitor, single point]
COC(=O)[C@H](CC(C)C)NC(=O)Nc1ccc2oc(-c3cccnc3)nc2c1	inconclusive: 31.6 µM [inhibitor, partial curve, poor fit]
O=C(c1ccoc1)N1CCN(c2cc(-c3cccs3)[nH]n2)CC1	inconclusive: 20 µM [inhibitor, single point]
CCc1ccc(CN2CCC(CNC(=O)C(C)(C)C)CC2)nc1	inactive
FC(F)(F)c1ccc2nc([C@H]3CCN(Cc4ccc(Cl)cc4)C3)[nH]c2c1	inconclusive: 39.8 µM [inhibitor, single point]
O=C(Nc1ccc(CN2CCOC2=O)cc1)N1CCCC1	inactive
CC(C)(C)c1cc(SCCC#N)cc(C(C)(C)C)c1O	inactive
COc1cccc(C(=O)Nc2cc(-c3cn4cccnc4n3)ccc2C)c1OC	inconclusive: 2.51 µM [inhibitor, full curve, poor fit]
CN(C)CCCNCCC#N	inactive
CCN(CC)S(=O)(=O)c1ccc(S(=O)(=O)Nc2ccc(C(C)C)cc2)cc1	inactive
CN(C)C[C@@H]1CN(Cc2ccccn2)C[C@H]1NS(=O)(=O)c1cccc(C#N)c1	inactive
COc1ccc(Nc2c(-c3ccc(Cl)cc3)nc3cnccn23)cc1OC	inconclusive: 1.12 µM [inhibitor, partial curve, poor fit]
Cc1nn2c(c1-c1ccccc1-c1ccccc1)N(C(=O)c1ccnn1C)CCC2	inactive
Cc1noc(C)c1-c1cc2cc(CN(C)C)oc2c(Nc2cccc([S+](C)(=O)[O-])c2)n1	active: 31.6 µM
Cc1cc(C)cc(Oc2coc3c(CN4CCN(C)CC4)c(O)ccc3c2=O)c1	inconclusive: 17.8 µM [inhibitor, partial curve, poor fit]
COc1ccc(-n2nc(C3CCN(Cc4ccc(C(F)(F)F)cc4)CC3)[nH]c2=O)cc1	inactive
Cc1ccc(C(=O)N[C@@H]2CN(c3ccncn3)C[C@H]2CN(C)C)s1	inactive

Structure (SMILES)	Potency
Cc1nc(-c2cccc(F)c2)sc1CCNC(=O)C1CC1	inconclusive: 39.8 µM [inhibitor, single point]
CCC(C)NC(=O)c1cc(-c2ccc(C)s2)nc2ccccc12 (configuration not stated)	inconclusive: 10 µM [inhibitor, partial curve, poor fit]
O=C(NCCNCc1c[nH]c2ccccc12)c1cccs1	inactive
CCc1nc2ccccc2c(C(=O)OCC(=O)NC2(C#N)CCCC2)c1C	inactive
Cc1ccc(NC(=O)C2CCCN(c3ncnc4c3nc3n4CCCCC3)C2)cc1F (configuration not stated)	inconclusive: 25.1 µM [inhibitor, partial curve, poor fit]
Cc1ccc(CNC(=O)c2ccc3c(c2)N(C)C2CCCCN2C3=O)cc1C (configuration not stated)	inconclusive: 28.2 µM [inhibitor, partial curve, poor fit]
CCN1CCN(C(=O)c2ccc3nc(-c4ccccc4)c(-c4ccccc4)nc3c2)CC1	inconclusive: 28.2 µM [inhibitor, partial curve, poor fit] and inconclusive: 22.4 µM [inhibitor, partial curve, poor fit]
COc1ccccc1N(C)S(=O)(=O)c1ccc(Cl)c(C(=O)Nc2ccccc2N2CCOCC2)c1	inconclusive: 28.2 µM [inhibitor, partial curve, poor fit]
O=C(NCCNS(=O)(=O)c1cccs1)c1cc2ccccc2[nH]1	inactive
Cc1ccc2nc(/C(C#N)=C/c3cccc(Br)c3)[nH]c2c1	inconclusive: 28.2 µM [inhibitor, partial curve, poor fit]
CN(C)S(=O)(=O)n1cc(/C=C(\NC(=O)c2ccccc2F)C(=O)NCCCn2ccnc2)c2ccccc21	inactive
CCOC(=O)C(NC(=O)c1cc(C)cc(C)c1)C(=O)OCC	inactive
Cn1c(=O)c2c(nc(SCC(=O)Nc3ccccc3)n2CCCc2ccccc2)n(C)c1=O	inactive
COc1ccc(-c2nc(C3CC(=O)N(c4ccc(C)cc4)C3)no2)cn1 (configuration not stated)	inactive
O=C1NCCCCCCN(Cc2ccc(F)cc2F)[C@H]2CCC[C@@H]12	inconclusive: 3.55 µM [inhibitor, partial curve, poor fit]
Cc1ccc(CN2CCSc3ccc(C(=O)Nc4ccc(Cl)cc4)cc32)cc1	inconclusive: 31.6 µM [inhibitor, partial curve, poor fit]
Cc1cccc(NC(=O)COc2ccc3c(C)cc(=O)oc3c2)c1	inconclusive: 28.2 µM [inhibitor, partial curve, poor fit]
CCCN(CCC)CCCNC(=O)c1cc2c(=O)oc3ccc(C)cc3c2s1	inconclusive: 28.2 µM [inhibitor, partial curve, poor fit]
COc1ccc(C(=O)NC2CCC(C)CC2)cc1S(=O)(=O)N(C)C (configuration not stated)	inactive
COc1cc(NC(=O)Nc2cccc(Cl)c2)c(C(=O)O)cc1OC	inconclusive: 35.5 µM [inhibitor, partial curve, poor fit]
COC[C@@H]1CN(c2ncccn2)C[C@H]1C(=O)NCc1ccccc1OC	active: 17.8 µM
